We go through 29 compounds from PubChem BioAssay AID488969 (Vanderbilt High Throughput Screening Facility, 2010).

The structures appear in SMILES notation. The full ranking holds about 110,000 compounds; the median of “z-score” is about -0.1, and the highest 2% start at about 2. The list shows a part of the results.

The experiment addresses Metabotropic glutamate receptor 8 (Rattus norvegicus) (UniProt P70579). Description: rat mGluR8 modulators via GIRK flux, primary screen, cell-based, thallium flux, HTS (AID 488969). The settings on record: HEK293 rat mGluR8, GIRK (G protein-gated inwardly rectifying potassium channel) thallium flux, FluoZin2; at 10 µM; stronger effect = higher value; submaximal glutamate (EC20) added with thallium.
Chain of UniProt P70579 (P70579 whole entry, looked up): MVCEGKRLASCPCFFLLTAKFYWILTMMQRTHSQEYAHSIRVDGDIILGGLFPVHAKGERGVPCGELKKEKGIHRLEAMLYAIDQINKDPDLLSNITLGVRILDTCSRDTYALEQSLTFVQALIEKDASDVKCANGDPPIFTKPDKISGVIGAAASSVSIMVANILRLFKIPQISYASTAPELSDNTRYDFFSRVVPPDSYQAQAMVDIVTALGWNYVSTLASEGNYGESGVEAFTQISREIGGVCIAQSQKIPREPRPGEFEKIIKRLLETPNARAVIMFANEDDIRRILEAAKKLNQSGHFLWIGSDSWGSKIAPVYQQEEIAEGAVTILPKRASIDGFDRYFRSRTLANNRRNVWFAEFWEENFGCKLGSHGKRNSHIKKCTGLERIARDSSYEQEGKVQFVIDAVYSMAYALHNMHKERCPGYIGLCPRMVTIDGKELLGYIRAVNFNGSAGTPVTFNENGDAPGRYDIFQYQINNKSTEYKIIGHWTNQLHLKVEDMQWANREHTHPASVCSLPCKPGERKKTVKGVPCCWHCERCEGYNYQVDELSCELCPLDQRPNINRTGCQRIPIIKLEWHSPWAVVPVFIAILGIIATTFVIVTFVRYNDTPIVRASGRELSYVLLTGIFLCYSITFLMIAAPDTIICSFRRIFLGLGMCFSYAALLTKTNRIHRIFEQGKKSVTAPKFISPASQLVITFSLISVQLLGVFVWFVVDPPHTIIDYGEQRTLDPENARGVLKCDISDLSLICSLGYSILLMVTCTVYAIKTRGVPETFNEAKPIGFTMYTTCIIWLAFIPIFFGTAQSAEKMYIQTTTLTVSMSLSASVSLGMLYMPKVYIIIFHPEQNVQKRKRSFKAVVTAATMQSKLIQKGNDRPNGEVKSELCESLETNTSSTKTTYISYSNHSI
As for `Cc1ccc(NC(=O)C[n+]2ccccc2)cc1[N+](=O)[O-]`, the z-score was -0.109.

For `CCn1c(=S)ccc2ccc(OC)cc21`, the z-score was -0.373.

`O=C(Nc1ncc2c(n1)-c1ccccc1CC2)c1cccc(Cl)c1` returned a z-score of -0.891.

`CC(C)(C)c1nn2cnnc2n(/N=C/c2ccc(O)cc2)c1=O` registered a z-score of -0.126.

`COc1ccc(C(=O)Oc2cc(/C=N/NS(=O)(=O)c3ccc(C)cc3)ccc2OC)cc1`: the z-score is -0.878.

For `CSCC[C@H](NC(=O)OC(C)(C)C)c1nnc(SCc2cccc(F)c2)o1`, the z-score was -1.29.

`C=CCn1c(CNc2ccccc2)nnc1SCC(=O)N/N=C/c1ccccc1O` showed a z-score of -0.235.

As for `Cc1c(F)cccc1NS(=O)(=O)c1ccccc1C#N`, the z-score stood at 0.587.

`CCOC(=O)c1cc(-c2ccccc2)sc1NC(=O)C(C)N1C(=O)c2ccccc2C1=O` (centres undefined): the z-score came to 0.0576.

`CCOC(=O)C1=C(O)/C(=C\c2ccc(OC)c(OC)c2)N=C1C` came in with a z-score of 0.00382.

The compound `CC(C)(C)NC(=O)C(c1ccco1)N(C(=O)c1csnn1)c1ccccc1` (centres undefined) came in with a z-score of 0.107.

As for `Cc1ccc(N2C(=O)[C@@H]3C(c4ccc(F)cc4)=NO[C@@H]3C2=O)cc1`, the z-score came to 0.188.

The compound `O=c1[nH]cnc2scc(-c3ccc(-c4ccccc4)cc3)c12` displayed a z-score of 0.454.

Regarding `O=C(C[n+]1cc(-c2ccc(F)cc2)n2c1CCC2)N1c2ccccc2Sc2ccccc21`, the z-score was -0.285.

The compound `O=C(Cn1nnc2ccccc21)NCc1ccccc1` gave a z-score of 0.579.

Turning to `O=C(CN1CCN(c2ccccc2)CC1)Nc1ccccc1Sc1ccccc1`, the z-score turned out to be 0.145.

On to `COc1cc(C=O)ccc1OCCOCCOc1c(C)cc(Cl)cc1Cl`, for which the z-score was -0.192.

`Cc1ccc(C(=O)Nc2ccccc2SCC2CSc3nc4ccccc4c(=O)n32)cc1` (centres undefined) gave a z-score of -0.196.

On to `Cc1cc(C)c2nc(NC(=O)c3ccc4c(c3)OCO4)sc2c1`, for which the z-score was -0.113.

The compound `COc1ccc(C2C(C(=O)Nc3cccnc3)=C(C)Nc3nc(-c4cccs4)nn32)cc1` (centres undefined) returned a z-score of -0.167.

As for `Cc1csc(NC(=O)CSc2nnc(NC(=O)COc3ccccc3)s2)n1`, the z-score is -0.167.

As for `Cc1ccc(CS(=O)(=O)Cc2ccc(C(=O)NCc3ccccn3)o2)cc1`, the z-score is -0.322.

`COc1ccc(OC)c(NC(=O)c2c(NC(=O)c3ccco3)sc3c2CCC3)c1` displayed a z-score of -0.643.

Regarding `Cc1ccccc1N1CCN(CCN2C(=O)CC(=C3c4ccccc4-c4ccccc43)C2=O)CC1`, the z-score was -1.07.

In the case of `Fc1ccc(CSc2nnc(Cc3sc(-c4ccccc4)nc3-c3ccccc3)o2)cc1`, the z-score stood at 0.324.

Take `CC(C)(C)CC(=O)Nc1ccc(C(N)=O)cc1`: the z-score turned out to be 1.61.

`CSc1nnc2c(n1)OC(c1cn(C)c3ccccc13)N(C(C)=O)c1ccccc1-2` (centres undefined) returned a z-score of 0.274.

`Cc1ccc(Cn2c(=N)n(CC(=O)c3ccc([N+](=O)[O-])cc3)c3ccccc32)cc1` yielded a z-score of 0.888.

As to `CC(C)CCNC(=O)CN(C(=O)CCC(=O)Nc1ccccn1)c1ccc2c(c1)OCO2`, the z-score was -1.06.
